Results on 167 variants are retold here after the RNAGym collection of RNA variant scans (doi:10.1093/nar/gkz1192).

Read counts are not given, so values of variants with three or more changes are uncertain.

B1: CPEB3 Ribozyme (parent)
chain: UAACAGGGGGCCACAGCAGAAGCGUUCACGUCGCAGCCCCUGUCAGAUUCUGGUGAAUCUGCGAAUUCUGCUGUAUAUCUC

In this data set the parent is B1. Put plainly: self-cleavage, relative activity (ratio to wild type); higher = more cleavage; in vitro, sequencing. The procedure, abridged: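 Libraries of CPEB3 self-cleaving ribozyme mutants came from rounds of error-prone PCR and carried barcodes, which DNA sequencing matched to variants. In vitro transcription used T7 RNA polymerase at 37°C for 5 hours, with a further 15 min in DNase I before EDTA stopped the reaction; the ribozymes cleaved during both steps. The RNA was reverse transcribed with template switching and sequenced on Illumina. Relative activity is the cleaved/total read fraction of a variant divided by that of the unmutated ribozyme, averaged over three batches with at least 5 reads.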
As for A20G C32A A57G, the self-cleavage amounted to 0.06. The result for A20G G24A C79U reads 0.04. The value for A20G U25A U67C was 0.35; that for A20G G36A C37G C50U U60C A77G was 0.03. With A20G U25A U26C A57G A65G U67C U78C, the self-cleavage came to 0.14. The value for A20G U25C A45G was 0.47; that for A20G C32A U48C U54C was 0.18; that for A20G C39U U49C was 0.09. The result for A20G C29U U31C U41C reads 0.09; that for A20G U25C A64G A77U, 0.22. As for A20G G63A U72C, the self-cleavage stood at 0.81. On to A20G U26C C39A A45G U60C C62G U69C, for which the self-cleavage was 0.04. The value for A20G U31C U80A was 0.83; that for A20G C32U A47U A57G U67A U78A was 0.02; that for A20G U25C U41C A45C U49C U51A C62A was 0. On to A20G C27G U31A A45G A47G A77G, for which the self-cleavage is 0.02. Turning to A20G G36A A47G U72C U78C, the self-cleavage was found to be 0.14. In the case of A20G G24A U54C, the self-cleavage was found to be 0.18.

Turning to A20G U26A C71U, the self-cleavage turned out to be 0.28. In the case of A20G U26C C37U U58C A64G U69C U72C, the self-cleavage was found to be 0.09. A20G C32U U78C: the self-cleavage was 0.15. With A20G U31A C32U U48C A57G, the self-cleavage was 0.19.

With A20G U25C U31C A45G U72A, the self-cleavage stood at 0.06. The value for A20G U26C C29A A64G was 0.23. The result for A20G C40A U67C U72A reads 0.23; that for A20G U25A A56U, 0.45; that for A20G U31C U54C U58A, 0.1. The value for A20G U25G U76C A77G was 0.09.

On to A20G U25C U60A G63A, for which the self-cleavage was 0.22. Turning to A20G U25C G30A U31A U72C U80C, the self-cleavage is 0.23.

For the variant A20G C23A U26C U31C U41C U48G, the self-cleavage was 0.04. Take A20G U31C A35U: the self-cleavage is 0.2.

As for A20G U25A U49G A57G U58C U67A, the self-cleavage was 0.05. As for A20G G33A U41C, the self-cleavage came out at 0.37.

Take A20G U41A A64U U80C: the self-cleavage came to 0.1. A20G U25C U31G U43C: the self-cleavage was found to be 0.19. For the variant A20G U31C U54A, the self-cleavage worked out at 0.26. The result for A20G C32U U54C reads 0.18; that for A20G U41A U54A U66C, 0.13.

As to A20G G33A U49G, the self-cleavage was 0.18.

For the variant A20G G55A U60C A77U, the self-cleavage came to 0.1. The value for A20G G52A U69C was 0.65.

On to A20G U26A C38U U51C G55A U60A, for which the self-cleavage worked out at 0.07. The value for A20G U31C U54A A56U G61C U69A U72C was 0.09.

A20G U26A A28G U43C U72C U78C: the self-cleavage was 0.16. The value for A20G U25G A47G U48C U69C was 0.06; that for A20G A77U U78C was 0.84. The value for A20G U25C A77U was 0.37.

Regarding A20G C27U U51A A77U, the self-cleavage was determined as 0.06.

For A20G C40U U69A, the self-cleavage is 0.24. The value for A20G U25C U51A A64G A65G was 0.34; that for A20G C29U U43A U58C U67A C68G U76G was 0.06; that for A20G G63U U74A was 1.16. The value for A20G U31A A45G U51C A57G U60C U74A was 0.7; that for A20G A65U U72C was 0.45; that for A20G U31C G33A U48A was 0.18.

Regarding A20G C37U A57G, the self-cleavage came to 0.29. The result for A20G U26A U43C A64G A65G U72C reads 0.25. The value for A20G U25C U80C was 0.41. As to A20G U26C C27A A35U, the self-cleavage turned out to be 0.3.

In the case of A20G U26A U31C G33A U54G A57U, the self-cleavage was found to be 0.06. The result for A20G C27A A65U U69C G70C reads 0.2. Consider A20G U31C U54A U80A, for which the self-cleavage came to 0.51.

As to A20G U26C G46C, the self-cleavage was determined as 0.17.

In the case of A20G U26A A64G, the self-cleavage was 0.38. The value for A20G U41A U48A U76A was 0.05.

Turning to A20G G53A C59U C81A, the self-cleavage turned out to be 0.86. The result for A20G C32A U80A reads 0.2; that for A20G C39U U41A A65G, 0.08. The result for A20G C39A U51A U67C C79U reads 0.15. The result for A20G G24A C38A reads 0.09; that for A20G U31C U51C A64G, 0.15. As for A20G U25C A28U U49C, the self-cleavage came out at 0.17.

Consider A20G U26A U54C, for which the self-cleavage worked out at 0.66.

As to A20G U26C U43C C81U, the self-cleavage is 0.42. The result for A20G U25A U72C reads 0.31. As to A20G U31C A45G G52A A56U A75G A77G, the self-cleavage was 0.05. On to A20G U26C G30A, for which the self-cleavage amounted to 0.27. The value for A20G U26C G52A was 0.22; that for A20G G46A A47U U51A U66C U78A was 0.07. For the variant A20G U26C U43A, the self-cleavage was 0.33. Consider A20G U25A A35G G36C U43A, for which the self-cleavage came to 0.25.

Take A20G U41C A45G A65G U80C: the self-cleavage is 0.22. For A20G G30A A35G U41C U72C A75U U76C, the self-cleavage was found to be 0.06. For A20G U26C U41A U54G U78C, the self-cleavage was 0.1. As to A20G C38U U51G, the self-cleavage is 0.17. The result for A20G U25C U54A A56G reads 0.16; that for A20G C32U U41A U43C U51A G55A, 0.17. With A20G C32A A45U U54C, the self-cleavage worked out at 0.15. On to A20G U25C U43A U60A, for which the self-cleavage came to 0.18. The value for A20G C32A A35G A45G U48G was 0.25. As to A20G U25A U43C A45G U49A U58C U78C, the self-cleavage is 0.1. The result for A20G G36A A45U A57G U60C reads 0.1; that for A20G U31C A47G G53U, 0.53; that for A20G U41A U54C C68U, 0.08. A20G U31C U41C U43A U51C U60A U80C: the self-cleavage came out at 0.12. The value for A20G C29A U43A U66C was 0.25; that for A20G U25C G30A was 0.08. Turning to A20G G42U A47G U74C, the self-cleavage amounted to 0.28.

Regarding A20G C37G U41A U72C U74C, the self-cleavage stood at 0.08. The value for A20G C38U U43C U48C was 0.06; that for A20G G33C U41C U48C U60C U72C was 0.06. The result for A20G U25C C29U A57G U67A C81A reads 0.05; that for A20G U25C U41A U60A, 0.07.

Turning to A20G U31C U54C U67C, the self-cleavage was found to be 0.51. A20G C40U G55A A56G: the self-cleavage was determined as 0.4.

On to A20G C44G U49C U60G, for which the self-cleavage was determined as 0.05.

For the variant A20G G36A U41C A65G C71U, the self-cleavage came out at 0.1.

With A20G U26A A35G, the self-cleavage came out at 1.21. As to A20G U31A C71U U78C, the self-cleavage is 0.1. The value for A20G C32A U41A U69A was 0.18. The value for A20G C32U U41C A57U was 0.07. For the variant A20G G24U U25C U54G, the self-cleavage was 0.1.

In the case of A20G U41A A65G U78A, the self-cleavage stood at 0.07.

Turning to A20G C32U U72C, the self-cleavage stood at 0.08. A20G U25C C40U A47G: the self-cleavage turned out to be 0.5. Regarding A20G U31A A35U U58C, the self-cleavage was found to be 0.29. A20G U41A G63A: the self-cleavage came to 0.21.

For the variant A20G G52U A64G, the self-cleavage was 0.63. Regarding A20G G24A C34U U72C, the self-cleavage is 0.11. Consider A20G U31C U67A, for which the self-cleavage was 0.23.

Regarding A20G U26C U67A, the self-cleavage was found to be 0.34. The result for A20G C40A U51G U72A reads 0.13. The result for A20G U31A C71U reads 0.17; that for A20G U31C A57G U67A, 0.29; that for A20G C62U A77G, 0.58. The result for A20G G33A U78C U80C reads 0.09; that for A20G C38U U54C U72G, 0.08.

On to A20G U26C U49C U60C G63A A65G, for which the self-cleavage stood at 0.04. Consider A20G U26C A28G U43G A57G A64U, for which the self-cleavage came out at 0.06. As for A20G U26A A65G U76C, the self-cleavage turned out to be 0.41. The result for A20G U25G A35G reads 0.57; that for A20G U31C U72C U78C, 0.65; that for A20G G36A U67C, 0.13. The value for A20G G24C A35U U43C U60C G73A was 0.27; that for A20G G30A U78C was 0.07; that for A20G C37A A56U U67A was 0.1. The value for A20G U31C C37A C40U A45G was 0.06.

As for A20G U31G U48C, the self-cleavage is 0.04.

A20G U25C U69C: the self-cleavage was found to be 0.24. With A20G C34U A45U U69C, the self-cleavage was determined as 0.19. A20G U31C C44G: the self-cleavage was determined as 0.21. On to A20G G53C U74A, for which the self-cleavage was 0.47. Consider A20G U26C U72G, for which the self-cleavage amounted to 0.21.

On to A20G U26C U72A, for which the self-cleavage was 0.27.

Consider A20G U26C A35U A47G A56G U76C, for which the self-cleavage was determined as 0.23. The value for A20G G42C A56U was 0.08.

Take A20G C39A A45G U69C U80C: the self-cleavage was found to be 0.15. The result for A20G U31C G36A G42A A45U reads 0.17; that for A20G U26C A28C G53A A56G, 0.17; that for A20G U25C U51C U58C U80C, 0.3. With A20G U31A G53U U76C U80C, the self-cleavage was 0.53. Regarding A20G G24C U31C G33A U69C, the self-cleavage was 0.1.

For A20G G36A U74A A77U, the self-cleavage stood at 0.46. A20G G30A U43C: the self-cleavage is 0.11. The result for A20G U31G A56G A64C reads 0.07.

In the case of A20G G42A G63U, the self-cleavage is 0.12. A20G U26A C34U A47G A65G: the self-cleavage came to 0.09. The result for A20G U25A U43C A56G U69A reads 0.06. The value for A20G U25C G55A was 0.11.

A20G U31A U66C U72C: the self-cleavage worked out at 0.09. Take A20G U25C A35C U78C: the self-cleavage was 0.34. Consider A20G U25C U49A A77U, for which the self-cleavage came to 0.27. The value for A20G C40A U49C A56U A77G was 0.1. As for A20G U31C U54C U78A, the self-cleavage was 0.57. Regarding A20G C29U C40U U54C, the self-cleavage amounted to 0.18. The result for A20G U31C G46U A57G U69A reads 0.27.
